Results taken from the supplement of paper PMC11417369.
± gives the standard deviation of the averaged measurements. Some of the results follow.

tested on: PfAP2-EXP AP2 domain (GST-tagged); assay: gcPBM binding intensity (ln(normalized median fluorescence intensity)); higher = stronger DNA binding
Outline: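 After 1 h on an Agilent 4 × 180k array of primer-extended double-stranded 36-bp intergenic genomic probes and negative controls, bound GST-tagged P. falciparum DNA-binding domains were detected with Alexa488 anti-GST antibody and scanned at 488 nm. The domains had been expressed in E. coli, and binding took place in 1× PBS with 1% milk, 0.2 mg/ml BSA, 0.5% salmon testes DNA and 0.03% Triton X-100. Binding intensity is the highest Masliner-normalised natural-log median intensity across replicate spots of either probe orientation.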

Sequence | gcPBM binding intensity (ln)
TTGCTTTTCATTTATTGTACATACCCAGTAGGATAA [XGTACX_site3939] | 8.88 ± 0.41
TTATAATACCTACAAAGTACAAACTTAAATATGAAC [XGTACX_site5684] | 8.55 ± 0.41
CAACAACAAATGAGAAGTACATAAATATTAACAATA [XGTACX_site4625] | 8.7 ± 0.57
ATATATATATATATATGTACATAATGCATATAATAT [XGTACX_site6142] | 10.2 ± 0.56
GAAGGAAAAGATACGATAAAATAAGATATTAATTTA [GTGCAC_negctrl_site419] | 8.4 ± 0.42
TTAATACTTTTTTCTGTACACACTTGATTTACTATA [CACACA_site2799] | 8.95 ± 0.44
TTCTTCAATATATTCTTACACACTTAAAAAAAAAAA [CACACA_site228] | 8.44 ± 0.35
TAAACACCCATACATACACACATACATACACCCATA [CACACA_site5125] | 8.71 ± 0.64
TTAAAGCTTGCATATACACACATACATAAATTCATA [CACACA_site7208] | 8.48 ± 0.32
GTATACAACATATGAACACACAAAATATTTTTTTTT [CACACA_site2928] | 8.62 ± 0.52
TATCTCCACAAAAGATGTACTCATATTAATTTATAA [XGTACX_site3535] | 8.26 ± 0.28
ATATATTTATATTTTTGTACCCAAAATTGTTTGATG [XGTACX_site3581] | 8.57 ± 0.46
ATTGAGGCTGGTTATATAATAATTTTATTATTTTAG [GTGCAC_negctrl_site409] | 8.4 ± 0.34
TAAAAGTTGAAGCACACACACAAAAGAAATACAATA [CACACA_site6649] | 8.96 ± 0.45
TTTTTTTTTTTTTATTGTACATACTTTTAAATATAT [XGTACX_site4303] | 8.55 ± 0.59
GTATATAAATAAATAGTGCATTATTAAAAATAATGT | 8.88 ± 0.32
ATAAATAAAGGACACACACACACACTAATAAAAAAA [CACACA_site8840] | 8.75 ± 0.64
TATATAATATATTTATGTACTCACAATGGGGTCTAC [XGTACX_site2691] | 9.02 ± 0.64
TATGAAAAGTAAAGTACACACAGGAAAAAAAAAAAA [CACACA_site1749] | 8.66 ± 0.53
TTTGTTATATTTAATACACACATATTATAAACACAT [CACACA_site7703] | 8.54 ± 0.39
GTTCATATAATAAAATGTACATAATATATTATATAT [XGTACX_site7623] | 8.52 ± 0.36
AAATTACTGTAAAAAAGTACAGAAGTTCTTATTTTT [XGTACX_site7416] | 8.14 ± 0.26
AGCTACAAAAATTAATATATATATGTATAGTTATAC [TGCATGCA_negctrl_site531] | 8.28 ± 0.41

Sequence | gcPBM binding intensity (ln)
TATATCTATTTCAAATGTACTTATATGATTCTTATA [XGTACX_site6277] | 8.4 ± 0.37
AACAAATATGATTTTTTATATATTTTTAAATTTGGT [GTGCAC_negctrl_site189] | 8.12 ± 0.4
AGTTTAATTTTGTATACACACATTTGAATTATTAAT [CACACA_site7625] | 8.77 ± 0.5
AAATGTTCAGAAACTATTATAAAAATGGAATAATAT [CACACA_negctrl_site1544] | 8.58 ± 0.51
TGCCATCATATCATAGGTACACAAACATATAAAGAA [XGTACX_site4137] | 9.03 ± 0.46
GTATTATATTTTAATACACACCCAAATATTAAAAAG [CACACA_site8968] | 8.58 ± 0.23
TTAACAAATAAATGCACACATATATATAAATAATAT [CACACA_site28] | 8.37 ± 0.29
TTATGCTCAAAGAAAAGTACATAAATAAAAGTATAT [XGTACX_site7365] | 8.65 ± 0.39
TAAATATTATATTTATGTACATAAGTTTTTTTTAAT [XGTACX_site3559] | 8.54 ± 0.35
CTTAATATGGATATTGCATGTAGAACATGAACAATA [TGCATGCA_site760] | 8.65 ± 0.4
TATATGTAGATTAAACGTACTTACAACGGAATTATC [XGTACX_site3036] | 8.78 ± 0.4
GAATATTCAACATAATGTACAAGTATTCATTTCTTT [XGTACX_site7860] | 8.45 ± 0.35
AAAATTCATAAATACACACACGCACATATATATATA [CACACA_site4227] | 9.91 ± 0.32
TAATAAACTTAAAAATGTACATATATTTATTATTAC [XGTACX_site4321] | 8.34 ± 0.35
CAAAAATAAAAGAAATGTACAAAAAATAATAAAAAA [XGTACX_site6597] | 8.76 ± 0.54
AAAAATTTTCAAGTGTGTACATATTTTCATTTAACA [XGTACX_site6186] | 8.61 ± 0.4
AAATATATATTCATGTGTACACACAAAAAAAAATAA [XGTACX_site4552] | 8.62 ± 0.057
TTTATACTTTTAAATTGTACTATAAAAAGGAATACA [XGTACX_site2537] | 8.32 ± 0.27
TTTTTATTTAGCTAAGCATGCTAACGATGACACTTC [TGCATGCA_site79] | 8.66 ± 0.45
ATGTATATATTTTTATGTACATATTTTTAATTTATA [XGTACX_site2982] | 8.13 ± 0.29
TAATAAAAAATTAAAAAAAATAAAAATAAAAATAAA [GTGCAC_negctrl_site78] | 8.26 ± 0.49
CATACATATACTTTGTGTACATATATATATTATATA [XGTACX_site97] | 8.54 ± 0.24
AAGAAAAAGTATCCTCTATCTTTATATAAACTATTA [TGCATGCA_negctrl_site2] | 8.09 ± 0.42

Sequence | gcPBM binding intensity (ln)
AAGAAAATGTATATATGTACATACAATCAAAAGAAG [XGTACX_site3454] | 9.12 ± 0.31
AAAATATATTAAGGCACACACATACAGATATATATA [CACACA_site5951] | 8.9 ± 0.37
TACGTGAAATTATATACACACATAAATATGGGTGTA [CACACA_site5687] | 8.04 ± 0.36
TTTTTTCTTTTTTTTTTTTTTTTCTTTTTTTTTTTT [GTGCAC_negctrl_site196] | 8.13 ± 0.55
TACATACACAAATACACACACAAATACATACCCAAA [CACACA_site4550] | 8.74 ± 0.61
GGTATACTCAAGTATACACACATATATATATATATA [CACACA_site5746] | 10.2 ± 0.45
TATGCATTTATGCATTGTACTTTTATAGATTCCACC [XGTACX_site7121] | 8.32 ± 0.35
AACAATATGGATGTATGTACACATATAGAACGTTAT [XGTACX_site7142] | 8.98 ± 0.33
TTAAACTATACCAAAACACACATACAAAATATAAAA [CACACA_site5494] | 8.81 ± 0.47
TATGTATATATATTAACACACAAAAAAAAAAAAAAA [CACACA_site1812] | 8.14 ± 0.69
ATGAACGGAAAAATATATATAAATATATATATCATG [XGTACX_negctrl_site342] | 8.44 ± 0.37
TACAAAAAAAAAGAACGTACAAAAAATTTCAAAAAT [XGTACX_site5860] | 8.61 ± 0.4
ATATTATATATACACGCACACACACTAATATATATA [CACACA_site9092] | 8.83 ± 0.27
GAAATTTTATTACTTTTACACACCTATATATTATTC [CACACA_site9076] | 8.69 ± 0.41
TAAAATAACTCACAAAGTACAAAAATAAGCATATGA [XGTACX_site7046] | 8.78 ± 0.64
TACATGATAGATCACACACACATATAAATATATATA [CACACA_site5562] | 8.41 ± 0.43
ACATAAGACACAAATACACACAAAAATATATAACAA [CACACA_site4082] | 8.77 ± 0.46
AAAAAAAAAAAAAAAACACACACATATATATATATA [CACACA_site8571] | 10.1 ± 0.21
TTCATGTCCTATTAATGTACTCTACACACATATAAG [XGTACX_site899] | 8.73 ± 0.35
TGTATATAATCGAGTGCACACACAAAAAAAAAGTGA [CACACA_site8417] | 8.97 ± 0.38
ATTTTATATACACTTTGTACTTATTTTATTCTTCTT [XGTACX_site4200] | 8.95 ± 0.37
TTTATTTATTTTTGTTGTACACTTGTATATATTATT [XGTACX_site6486] | 9.06 ± 0.41
ATATATATATATAATACACACTAAAGTAACATAATA [CACACA_site5580] | 9.74 ± 0.11

Sequence | gcPBM binding intensity (ln)
TATTAAACTTGACACACACACACACGCATATATAAA [CACACA_site6496] | 8.63 ± 0.33
TTTTTTAATACATATGCATGTTCAAGTACGAAAAAA [TGCATGCA_site641] | 8.61 ± 0.43
TACGGGAAAGATAAGAAACACACGGAAAATTAGACG [CACACA_site1661] | 9.13 ± 0.52
ATATATTTTATACATACACACATATAAATATTTTTT [CACACA_site7780] | 8.52 ± 0.36
GGAACAAATAATATCACACATATATATATATATATA [CACACA_site5670] | 10.3 ± 0.23
TACGCAACCAAAAGTTGTACTAATTTTTTTTTTTTG [XGTACX_site7432] | 8.68 ± 0.47
TAATAAATATATTGAAGTACTTATAAAAAGCAATAT [XGTACX_site6262] | 9.14 ± 0.53
TTAAAAGTAAGCAAAGTGCATATAACAAAAGTAAAG | 8.95 ± 0.34
AATATAAAACTTTAGAGTACTTATCATTAAAATATA [XGTACX_site4509] | 8.06 ± 0.32
TAAAATAAAAAAGTAGTACACACTTCACGATATTTT [CACACA_site3896] | 8.53 ± 0.37
ATTAATAATGAAAAAAAACACACGGTACATTCAAAG [CACACA_site1302] | 8.82 ± 0.55
TATTTAAAATAATGTGCAAAAGAATAAATAAATAAA [TGCATGCA_negctrl_site194] | 8.89 ± 0.42
TTGTAAGAAAGACACACACACACATATAAATATGTA [CACACA_site6516] | 8.49 ± 0.54
TTCATTTTCATATATTGTACAAAATTTTATAAGGTT [XGTACX_site4522] | 8.64 ± 0.49
TATATATATATATATACACACATACAGATATATATT [CACACA_site4629] | 10.2 ± 0.36
TATATAAGAACTTTTACACACATGAAAATGTAGATA [CACACA_site7711] | 8.36 ± 0.23
CACTAAAAGAAACACACACACACACCCATATATATA [CACACA_site4151] | 8.78 ± 0.071
TTACTATTATTATTTTTTATTTTTATTTTATTTATT [TGCATGCA_negctrl_site269] | 8.57 ± 0.21
ATATACACATATACATGTACAAATATATATACACAT [XGTACX_site2986] | 8.72 ± 0.35
ACACAAATAAATATAACATATATATTATATTATATT [CACACA_negctrl_site710] | 8.22 ± 0.3
